Among all 2,700 compounds or so, about 160 (5.9%) showed an effect of 50% or more. Some of the results follow.
Target: Nonstructural protein 3 (Zika virus) (UniProt A0A024AXB9)
[1] = PRVABC59, Concentration 50.0 uM, Number of replicates 1.0
[2] = PRVABC59, Concentration 15.0 uM, Number of replicates 1.0

Chain of UniProt A0A024AXB9 (A0A024AXB9 as listed by the source): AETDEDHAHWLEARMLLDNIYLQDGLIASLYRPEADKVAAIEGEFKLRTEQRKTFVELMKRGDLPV

## c1cnc2c(C3CCN(Cc4cscn4)CC3)c[nH]c2c1
PRVABC59, Concentration 49.5 uM, Number of replicates 2.0, Standard deviation 3.682232334202181 %
  inhibition: -1.48%
PRVABC59, Concentration 99.01 uM, Number of replicates 2.0, Standard deviation 2.7567516884063816 %
  inhibition: -3%
PRVABC59, Concentration 198.0 uM, Number of replicates 2.0, Standard deviation 1.9133167953201933 %
  inhibition: -1.59%

## O=Cc1ccc(N2CCC(C(=O)N3CCC[C@H]3c3cccc(F)c3)CC2)cc1
[1]
  inhibition: 24.6%

## NCc1cccc(NC(=O)[C@@H](Cc2ccc(O)cc2)NC(=O)OCc2ccccc2)c1
PRVABC59, Concentration 49.5 uM, Number of replicates 2.0, Standard deviation 1.0794413132384577 %
  inhibition: 4.38%
PRVABC59, Concentration 99.01 uM, Number of replicates 2.0, Standard deviation 0.37435168022164167 %
  inhibition: 9.22%
PRVABC59, Concentration 198.0 uM, Number of replicates 2.0, Standard deviation 0.8468347107681681 %
  inhibition: 19%

## CN1CCN(C2CCN(C(=O)c3cc(Cl)ccc3NS(=O)(=O)c3ccc(Oc4ccccc4Cl)cc3)CC2)CC1
[2]
  inhibition: 1.35%

## CC(C)(CO)NC(=O)c1cc(Cl)cc(NC(=O)c2cnc(-c3ccc(Cl)cc3)[nH]2)c1
PRVABC59, Concentration 49.5 uM, Number of replicates 2.0, Standard deviation 1.2332134367543028 %
  inhibition: -0.514%
PRVABC59, Concentration 99.01 uM, Number of replicates 2.0, Standard deviation 0.12370791246262977 %
  inhibition: 1.95%
PRVABC59, Concentration 198.0 uM, Number of replicates 2.0, Standard deviation 0.6050092438293936 %
  inhibition: 5.2%

## Cc1cnccc1NC(=O)CCCn1c(=O)oc2ccccc21
PRVABC59, Concentration 49.5 uM, Number of replicates 2.0, Standard deviation 0.527352411042616 %
  inhibition: -2.09%
PRVABC59, Concentration 99.01 uM, Number of replicates 2.0, Standard deviation 2.889325106159581 %
  inhibition: -3.22%
PRVABC59, Concentration 198.0 uM, Number of replicates 2.0, Standard deviation 0.5515984603931448 %
  inhibition: -0.216%

## CCc1ccc([N+](=O)[O-])cc1NC(=O)c1cc(Cl)ccc1NS(=O)(=O)c1ccc(Oc2ccccc2Cl)cc1
[2]
  inhibition: 29.9%

## Cc1cn[nH]c1-c1nn(C)cc1NC(=O)c1ccccc1C(F)(F)F
PRVABC59, Concentration 49.5 uM, Number of replicates 2.0, Standard deviation 1.0225233430236478 %
  inhibition: -7.9%
PRVABC59, Concentration 99.01 uM, Number of replicates 2.0, Standard deviation 0.5934117798183479 %
  inhibition: -7.43%
PRVABC59, Concentration 198.0 uM, Number of replicates 2.0, Standard deviation 1.8923446077948693 %
  inhibition: -5.9%

## COCCCN1CCC(NC(=O)c2cc(Cl)ccc2NS(=O)(=O)c2ccc(Oc3ccccc3Cl)cc2)CC1
[2]
  inhibition: 6.54%

## Cn1cc(NC(=O)c2cccc3ncccc23)cn1
PRVABC59, Concentration 49.5 uM, Number of replicates 2.0, Standard deviation 3.392303236065074 %
  inhibition: -6.29%
PRVABC59, Concentration 99.01 uM, Number of replicates 2.0, Standard deviation 4.211868261497117 %
  inhibition: -5.3%
PRVABC59, Concentration 198.0 uM, Number of replicates 2.0, Standard deviation 3.7498965706755105 %
  inhibition: -3.61%

## N#Cc1cc(Cl)c(NC(=O)c2cc(Cl)ccc2NS(=O)(=O)c2ccc(Oc3ccccc3Cl)cc2)c(Cl)c1
[2]
  inhibition: 24%

## Cc1cc(CO)c2cccc(C[C@H](NC(=O)[C@@H](N)CC(N)=O)C(=O)O)c2n1
PRVABC59, Concentration 49.95 uM, Number of replicates 2.0, Standard deviation 1.4050805088881784 %
  inhibition: 3.76%
PRVABC59, Concentration 99.9 uM, Number of replicates 2.0, Standard deviation 0.43156080086596493 %
  inhibition: 16.9%

## CN1CCN(c2ccc(CNS(=O)(=O)c3ccc(C(N)=O)cc3)cc2)CC1
PRVABC59, Concentration 49.5 uM, Number of replicates 2.0, Standard deviation 3.1298940912505486 %
  inhibition: -2.93%
PRVABC59, Concentration 99.01 uM, Number of replicates 2.0, Standard deviation 2.0491409994990377 %
  inhibition: -9.18%

## O=S1(=O)CCC(CN2CC[C@H](c3c[nH]c4ccccc34)C2)CC1
PRVABC59, Concentration 49.5 uM, Number of replicates 2.0, Standard deviation 2.6145692949548804 %
  inhibition: 0.007%
PRVABC59, Concentration 99.01 uM, Number of replicates 2.0, Standard deviation 2.809024064390927 %
  inhibition: 5.11%
PRVABC59, Concentration 198.0 uM, Number of replicates 2.0, Standard deviation 2.251024066691432 %
  inhibition: 13.7%

## CSc1cccc(CN(C)C(=O)c2cc(Cl)ccc2NS(=O)(=O)c2ccc(Oc3ccccc3Cl)cc2)c1
[2]
  inhibition: 13.8%

## Cn1cc(CNC(=O)c2ccccc2[C@@H]2CCCCN2)cn1
PRVABC59, Concentration 49.5 uM, Number of replicates 2.0, Standard deviation 2.1558812651007577 %
  inhibition: -3.96%
PRVABC59, Concentration 99.01 uM, Number of replicates 2.0, Standard deviation 1.0587457776267595 %
  inhibition: -2.54%
PRVABC59, Concentration 198.0 uM, Number of replicates 2.0, Standard deviation 0.05455370060074293 %
  inhibition: -3.02%

## O=Cc1ccc(N2CCC(C(=O)NCc3c(Cl)cccc3Cl)CC2)cc1
PRVABC59, Concentration 10.0 uM, Number of replicates 1.0
  inhibition: 5.89%

## NC(=O)[C@@H]1Cc2ccccc2CN1C(=O)c1cc(Cl)ccc1NS(=O)(=O)c1ccc(Oc2ccccc2Cl)cc1
[2]
  inhibition: 20.5%

## O=C(Nc1cc(C(F)(F)F)ccn1)c1cc(Cl)ccc1NS(=O)(=O)c1ccc(Oc2ccccc2Cl)cc1
[2]
  inhibition: 25.3%

## O=C(c1cc(Cl)ccc1NS(=O)(=O)c1ccc(Oc2ccccc2Cl)cc1)N1CCNC(=O)C12CCCCC2
[2]
  inhibition: 17.6%

## COc1cccc(Cn2ncc(C3CCNCC3)c2C)n1
PRVABC59, Concentration 49.5 uM, Number of replicates 2.0, Standard deviation 0.798878467099078 %
  inhibition: 1.12%
PRVABC59, Concentration 99.01 uM, Number of replicates 2.0, Standard deviation 1.6991071025640905 %
  inhibition: 0.912%
PRVABC59, Concentration 198.0 uM, Number of replicates 2.0, Standard deviation 0.9658081834438721 %
  inhibition: 1.49%

## Cc1cnccc1NC(=O)c1cccnc1OCC(C)C
PRVABC59, Concentration 49.5 uM, Number of replicates 2.0, Standard deviation 2.430418671336475 %
  inhibition: -1.57%
PRVABC59, Concentration 99.01 uM, Number of replicates 2.0, Standard deviation 1.794495578134735 %
  inhibition: 1.39%
PRVABC59, Concentration 198.0 uM, Number of replicates 2.0, Standard deviation 0.3139872779103988 %
  inhibition: 5.17%

## Cc1cc(NC(=O)C2CCN(c3ccc(C=O)cc3)CC2)ncc1I
[1]
  inhibition: 22.7%

## Cc1cc(CO)c2cccc(Cc3cccc(NC(=O)C4(C(N)=O)CC4)c3)c2n1
PRVABC59, Concentration 49.95 uM, Number of replicates 2.0, Standard deviation 1.9747889432508479 %
  inhibition: 1.64%
PRVABC59, Concentration 99.9 uM, Number of replicates 2.0, Standard deviation 1.6032438638183952 %
  inhibition: 8.21%

## Cc1cc(CO)c2cccc(NC(=O)[C@@H]3CC(=O)CCN3)c2n1
PRVABC59, Concentration 49.95 uM, Number of replicates 2.0, Standard deviation 16.037989968188715 %
  inhibition: 12.9%
PRVABC59, Concentration 99.9 uM, Number of replicates 2.0, Standard deviation 20.92566279936443 %
  inhibition: 23%

## CCCOc1ccc(NC(=O)C2CCN(c3ccc(C=O)cc3)CC2)cc1
[1]
  inhibition: 2.4%

## Cc1cnccc1NC(=O)c1cc(C#N)n(C)c1C
PRVABC59, Concentration 49.5 uM, Number of replicates 2.0, Standard deviation 1.1486465227870428 %
  inhibition: 0.53%
PRVABC59, Concentration 99.01 uM, Number of replicates 2.0, Standard deviation 4.376343134650394 %
  inhibition: 0.146%
PRVABC59, Concentration 198.0 uM, Number of replicates 2.0, Standard deviation 2.5516361265205956 %
  inhibition: 0.012%

## Cc1ccc(CNC(=O)c2cc(Cl)ccc2NS(=O)(=O)c2ccc(Oc3ccccc3Cl)cc2)c(F)c1F
[2]
  inhibition: 23.2%

## CN1C(=O)c2ccc(NC(=O)C3CCN(c4ccc(C=O)cc4)CC3)cc2C1=O
[1]
  inhibition: 28.5%

## O=Cc1ccc(N2CCC(C(=O)Nc3cc(C(F)(F)F)ccc3Cl)CC2)cc1
[1]
  inhibition: 20.6%

## CC(C)(O)CN(Cc1ccccc1)C(=O)C1CCN(c2ccc(C=O)cc2)CC1
[1]
  inhibition: 25.6%

## Cc1cc(NC(=O)C2CCN(c3ccc(C=O)cc3)CC2)c(F)cc1Br
[1]
  inhibition: 25.4%

## NC(=O)c1ccc(CNC(=O)NCCc2ccc(OCc3ccccc3)cc2)cc1
PRVABC59, Concentration 49.5 uM, Number of replicates 2.0, Standard deviation 1.2785165573830564 %
  inhibition: -5.52%
PRVABC59, Concentration 99.01 uM, Number of replicates 2.0, Standard deviation 1.3428575991449991 %
  inhibition: -5.78%
PRVABC59, Concentration 198.0 uM, Number of replicates 2.0, Standard deviation 0.9941713266177634 %
  inhibition: -7.37%

## NCc1cccc(NC(=O)[C@H]2C[C@@H](NC(=O)OCc3ccccc3)C2)c1
PRVABC59, Concentration 49.5 uM, Number of replicates 2.0, Standard deviation 2.4695899523424996 %
  inhibition: 0.708%
PRVABC59, Concentration 99.01 uM, Number of replicates 2.0, Standard deviation 2.6714237077221363 %
  inhibition: 5.65%
PRVABC59, Concentration 198.0 uM, Number of replicates 2.0, Standard deviation 2.499126716660025 %
  inhibition: 13.9%

## N#Cc1cc(Cl)ccc1NC(=O)c1cc(Cl)ccc1NS(=O)(=O)c1ccc(Oc2ccccc2Cl)cc1
[2]
  inhibition: 24.2%

## O=Cc1ccc(N2CCC(C(=O)NCCc3ccc4ccccc4c3)CC2)cc1
[1]
  inhibition: 19.9%

## Cc1cc(CO)c2cccc(Nc3cc(O)[nH]n3)c2n1
PRVABC59, Concentration 49.95 uM, Number of replicates 2.0, Standard deviation 1.761368724187627 %
  inhibition: 18.3%
PRVABC59, Concentration 99.9 uM, Number of replicates 2.0, Standard deviation 1.139118047569397 %
  inhibition: 23.8%

## O=Cc1ccc(N2CCC(C(=O)NCCc3cc(Cl)ccc3Cl)CC2)cc1
[1]
  inhibition: 3.45%

## O=c1[nH]cc(Cl)cc1CN1CC[C@H](c2c[nH]c3ccccc23)C1
PRVABC59, Concentration 49.5 uM, Number of replicates 2.0, Standard deviation 1.7352961779366058 %
  inhibition: -0.136%
PRVABC59, Concentration 99.01 uM, Number of replicates 2.0, Standard deviation 1.511250443335849 %
  inhibition: 5.66%
PRVABC59, Concentration 198.0 uM, Number of replicates 2.0, Standard deviation 1.5408415770879536 %
  inhibition: 14.3%

## CC(C)(C)c1ccc(CNC(=O)c2cc(Cl)ccc2NS(=O)(=O)c2ccc(Oc3ccccc3Cl)cc2)cc1
[2]
  inhibition: 18.6%

## Cc1cc(CO)c2cccc(Cc3ccccc3NC(=O)Cc3nnc(C)[nH]3)c2n1
PRVABC59, Concentration 49.95 uM, Number of replicates 2.0, Standard deviation 1.0993669945152562 %
  inhibition: 4.1%
PRVABC59, Concentration 99.9 uM, Number of replicates 2.0, Standard deviation 0.855063124296647 %
  inhibition: 10.8%
